# Data from PubChem BioAssay AID485344 (National Center for Advancing Translational Sciences (NCATS), 2010).
# Out of some 340,000 compounds screened, about 6,900 (2%) were called active. No stated cut-off is given here; in the data, active means inhibition above about 30%; inactive means below that, where a call was filed. This is a selection; strong and weak results do not stand in their true shares. Entries without a call were filed so in the source.
# Target: D(2) dopamine receptor (Homo sapiens) (UniProt P14416)
# UniProt P14416, sequence (P14416 whole entry, looked up): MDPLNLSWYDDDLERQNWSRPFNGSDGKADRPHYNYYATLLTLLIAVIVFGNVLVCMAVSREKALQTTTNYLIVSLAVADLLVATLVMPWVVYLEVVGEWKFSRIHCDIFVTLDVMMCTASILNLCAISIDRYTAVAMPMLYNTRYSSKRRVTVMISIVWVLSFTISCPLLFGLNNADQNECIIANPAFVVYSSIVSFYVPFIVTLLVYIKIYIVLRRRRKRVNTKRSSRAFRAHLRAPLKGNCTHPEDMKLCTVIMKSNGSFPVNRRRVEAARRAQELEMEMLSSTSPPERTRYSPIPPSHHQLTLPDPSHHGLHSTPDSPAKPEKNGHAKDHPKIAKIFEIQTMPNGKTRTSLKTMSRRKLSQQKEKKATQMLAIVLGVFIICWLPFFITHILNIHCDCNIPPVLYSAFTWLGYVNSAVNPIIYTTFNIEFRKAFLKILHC
# Experiment: HTS Assay for Allosteric Antagonists of the Human D2 Dopamine Receptor: Primary Screen for Antagonists; further: 0% is about no effect
# Settings: HEK293 TREx D2 cells, calcium flux, dopamine EC80; at 10 µM; stronger effect = higher value
# How it was run: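 Tetracycline-induced HEK293 T-REx cells expressing D2 force-coupled to calcium signalling were dye-loaded, exposed to compound for 180 s, then challenged with an EC80 of dopamine; calcium flux was followed kinetically for a further 180 s.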
row,Structure (SMILES),inhibition
1,CCOC(=O)C1CCCN(C(=O)c2cc(-c3ccc(F)cc3)nc3ccccc23)C1 (stereo unspecified),active: 47.3%
2,Cc1ccc(-n2ncc3c(NC(C)c4ccccc4)ncnc32)cc1 (stereo unspecified),-15.2%
3,COc1ccc(NC(=O)Cn2c(=O)n(Cc3ccccc3OC)c(=O)c3cccnc32)cc1Cl,-6.32%
4,O=S(=O)(c1ccc(Cl)cc1)c1nc(-c2cccs2)oc1SCc1ccc(F)cc1,-1.95%
5,COc1cccc(CNC(=O)Cc2c(C)c3c(cc(C)c4c(C)c(C)oc43)oc2=O)c1,3.85%
6,CC1(NC(=S)Nc2ccc3ccccc3c2)CCS(=O)(=O)C1 (stereo unspecified),active: 36.6%
7,COc1ccc(NC(=O)CCN2CCN(Cc3ccccc3)CC2)c(OC)c1,active: 41%
8,CCC(C)c1ccccc1OCCCCN1CCCC1 (stereo unspecified),active: 64.7%
9,Cn1nnc2c(NCc3ccc(Cl)cc3)ncnc21,-16.2%
10,COc1ccccc1C1CCN(c2cc(O)ccc2[N+](=O)[O-])CC1,active: 34.4%
11,COc1ccc(C2(Nc3cccc(F)c3)C(=O)c3ccccc3C2=O)cc1,-8.96%
12,COCCNC(=O)C1CCN(C(=O)c2cc3sccc3n2Cc2ccc(Cl)cc2)CC1,-22.7%
13,CCCN(CCC)CCCNC(=O)C1CCCN(Cc2nc(-c3ccc(Cl)cc3)oc2C)C1 (stereo unspecified),-14%
14,O=C(NCC1CCCO1)c1cccc(S(=O)(=O)N2CCCCC2)c1 (stereo unspecified),active: 30.9%
15,COc1ccccc1NC(=O)CSC1=Nc2ccccc2C2=NC(CCC(=O)NCc3ccco3)C(=O)N12 (stereo unspecified),2.01%
16,O=C(NN=C1CCCC1)c1ccn[nH]1,active: 41.7%
17,O=c1ccc2cc(S(=O)(=O)Nc3ccc(F)c(Cl)c3)ccc2[nH]1,-16.8%
18,CCCC(C)NC(=O)C1CCN(C(=O)C2CC(=O)N(c3ccc(C)cc3)C2)CC1 (stereo unspecified),active: 33%
19,CCOc1ccc2nc(SCC(=O)Nc3ccc(F)cc3)nc(-c3ccccc3)c2c1,14%
20,CCOC(=O)Cc1ccc(NC(=O)N2CCSc3ccccc32)cc1,-5.59%
21,Cc1ccc(-c2nc(CS(=O)CC(=O)NCc3ccccc3Cl)c(C)o2)cc1 (stereo unspecified),1.13%
22,Cc1cc(NC(=O)CCn2c(=O)c3cccn3c3cccnc32)ccc1Br,-3.03%
23,CCC(=O)N1c2ccccc2CC1C(=O)NCCc1cc(OC)c(OC)c(OC)c1 (stereo unspecified),5.57%
24,CC(=O)SCC[N+](C)(C)C,active: 35.9%

row,Structure (SMILES),inhibition
1,CCCN1CCN(c2nnc(-n3cccc3C(=O)Nc3cc(Cl)ccc3C)s2)CC1,10.1%
2,O=C(CN1CCN(c2ccccn2)CC1)Nc1ccccc1Br,active: 38%
3,Cc1ccc(NC(=O)C2CCCN(S(=O)(=O)c3cccc4nsnc34)C2)cc1C (stereo unspecified),-0.969%
4,COc1ccc(-n2c(=O)c3sc4ccccc4c3n(C)c2=O)cc1,14.5%
5,CN1CCN(c2nc(-c3ccccc3)ncc2S(=O)(=O)c2ccccc2)CC1,active: 54.3%
6,CCCn1c(CCC(=O)Nc2cc(C(=O)OC)cc(C(=O)OC)c2)nc2cccnc21,-1.02%
7,O=C(CSc1nc2sc3c(c2c(=O)[nH]1)CCCC3)NCCO,active: 42.2%
8,COC(=O)c1scc(-c2ccc(C)cc2)c1S(=O)(=O)Nc1cc(Cl)c(OC)cc1OC,7.39%
9,CCCn1c(CCC(=O)Nc2cc(OC)cc(OC)c2)nc2cccnc21,0.681%
10,CCOC(=O)c1[nH]cnc1C(=O)Nc1cccc(OC)c1,6.4%
11,Cc1ccccc1CCNC(=O)c1ccc2c(c1)nc1n2CCOC1,-3.92%
12,Cc1ccc(-c2[nH]ncc2CN2CCN(C(=O)c3cccs3)CC2)cc1C,active: 66.5%
13,CCCCN(CCCC)CCCNC(=O)Cn1cc2c(n1)-c1c(oc(C(=O)N3CCCC3)c1C)CC2,1.95%
14,CCOC(=O)c1ccc(N2C(=O)c3[nH]nc(-c4ccc(C)cc4)c3C2c2cccs2)cc1 (stereo unspecified),5.33%
15,CSc1ncc(C(=O)Nc2ccccc2C(F)(F)F)c(-c2ccccc2)n1,-7.29%
16,COc1ccc(N(CC(=O)Nc2c(C)n(C)n(-c3ccccc3)c2=O)S(=O)(=O)c2ccc(C)cc2)cc1OC,active: 34.6%
17,CCCc1nc2nc(C)c(NS(=O)(=O)c3ccc(CC(C)C)cc3)c(=O)n2[nH]1,-7.82%
18,CCCCn1cc(S(=O)(=O)c2cc(C)ccc2C)c(=O)c2cc(F)c(N3CCC(C)CC3)cc21,11.2%
19,Cc1nnc(SC(C)C(=O)NCC2CCCO2)s1 (stereo unspecified),active: 31.1%
20,CCOC(=O)c1c(C)[nH]c(C)c1S(=O)(=O)N1CCC(C(=O)Nc2ccc(OCC)cc2)CC1,-2.97%
21,CCc1ccccc1NC(=O)Nc1c(C)n(C)n(-c2ccccc2)c1=O,5.58%
22,CCCC(=O)Nc1cc2nn(-c3ccccc3)nc2cc1C,8.1%
23,Cc1ccc(C)c(N2CCN(C(=O)CN3C(=O)COc4ccc(S(=O)(=O)N5CCCC5)cc43)CC2)c1,9.36%
24,CCc1cccc(NC(=O)CN(c2ccc(C)c(C)c2)S(=O)(=O)c2ccsc2C(=O)OC)c1,8.54%

row,Structure (SMILES),inhibition
1,COc1ccc(C(=O)NCC(c2ccco2)S(=O)(=O)c2ccc(F)cc2)cc1 (stereo unspecified),8.74%
2,N#CCCN1CCN(Cc2cc(-c3ccccc3)ccc2O)CC1,active: 65.1%
3,CCc1ccccc1NS(=O)(=O)c1ccc2nc(-c3ccccc3)[nH]c2c1,2.04%
4,CC(C)OCCCNC(=O)C(=O)Nc1c2c(nn1-c1ccccc1)CS(=O)(=O)C2,17.9%
5,COc1ccc2c(c1)C=C(CN1CCN(Cc3ccccc3C)C(CCO)C1)CO2 (stereo unspecified),active: 57.8%
6,Cc1ccc2c(c1)N(CC(=O)NCCc1ccccc1)C(=O)CO2,-3.71%
7,Cc1ccc(N2C(=O)c3n[nH]c(C)c3C2c2ccc(Cl)cc2)cc1 (stereo unspecified),0.483%
8,CCc1ccc(-n2c(=O)c3c4c(sc3n(Cc3cc(=O)n5c(C)cccc5n3)c2=O)CCC4)cc1,10.1%
9,CCOC(=O)c1[nH]c2c(c1Cc1ccccc1OC)C(=O)CC(c1ccc(OC)cc1)C2 (stereo unspecified),-7.79%
10,CCOC(=O)c1ccccc1NC(=O)Cn1ncc2c1-c1ccccc1OC2,-8.08%
11,Cc1cc(C)cc(NC(=O)CSc2oc(-c3ccccc3)nc2S(=O)(=O)c2ccc(Cl)cc2)c1,3.87%
12,Cc1ccc(NC(=O)Cn2nc(C(F)(F)F)c3c2CCCC3)cc1C,-6.56%
13,O=C(Cn1c(=O)n(CCc2ccccc2)c(=O)c2cccnc21)Nc1ccc(F)cc1,-10.5%
14,CCCCNC(=O)C1CCC(Cn2c(=O)c3sccc3n(Cc3ccccc3)c2=O)CC1 (stereo unspecified),14.1%
15,Cc1cc(C)c(NC(=O)c2nc3ccccc3nc2N2CCCCC2)c(C)c1,-1.92%
16,CCC(=O)N1CCc2cc(S(=O)(=O)NC(C(=O)NCCc3ccc(OC)c(OC)c3)C(C)C)ccc21 (stereo unspecified),-16.3%
17,CCCCNC(=O)CSc1nc2cc3c(cc2c(=O)n1CCCC(=O)NCCc1ccc(OC)c(OC)c1)OCO3,-5.9%
18,CC1=C(C(=O)OC2CCCC2)C(c2c(Cl)cccc2Cl)CC(=O)N1 (stereo unspecified),-2.79%
19,Cc1cc(C(=O)N2CCN(c3ccccc3)CC2)c2c(C)nn(-c3cccc(F)c3)c2n1,4.98%
20,COc1cc(NC(=O)C2CCN(C(=O)c3sc4nc[nH]c(=O)c4c3C)CC2)cc(OC)c1OC,-18.8%
21,CCC(C)NC(=O)c1c(C)oc2ncn(CC(C)C)c(=O)c12 (stereo unspecified),-0.372%
22,COc1ccc(-c2nc3ccccc3n3c(-c4cccc(C)c4)c4c(=O)n(C)c(=O)n(C)c4c23)cc1OC,20.1%
23,O=C(CCS(=O)(=O)c1cc(Br)cc2c1N(C(=O)C1CC1)CC2)N1CCN(c2cccc(Cl)c2)CC1,14.9%
24,CCc1cccc(OCC(=O)Nc2ccc(S(=O)(=O)Nc3ncccn3)cc2)c1,13.5%

row,Structure (SMILES),inhibition
1,CCOc1ccccc1NC(=O)C1CCN(S(=O)(=O)c2ccc3[nH]c(=O)oc3c2)CC1,3.48%
2,CC1CCc2c(cc(-c3ccccc3)n2-c2ccc(C(=O)NC(C)C)cc2)C1 (stereo unspecified),-3.46%
3,Cc1cc(C)c(OCCCCN(C)Cc2ccccc2)c(C)c1,active: 33.3%
4,Cc1cccc(C)c1OCc1nc2c3cnn(-c4ccccc4F)c3ncn2n1,-16.3%
5,CC(C)(C)c1ccc(OCc2nc3ccccc3n2CCOc2ccccc2)cc1,-3.7%
6,O=S(=O)(c1ccc(Cl)cc1)n1cccn1,active: 40.4%
7,COc1cccc(NC(=O)CSc2nc3c([nH]c4ccccc43)c(=O)n2-c2cc(C)cc(C)c2)c1,1.13%
8,CC(=O)c1ccc(S(=O)(=O)N2CCn3cccc3C2c2ccccc2F)cc1 (stereo unspecified),-6.34%
9,Cc1cc(C)cc(NC(=O)Cc2csc(C)n2)c1,14.6%
10,COc1ccccc1CNC(=O)c1cc2c(=O)oc3ccc(C)cc3c2s1,14.7%
11,COc1ccc(CNC(=O)c2cc3c(=O)n(Cc4cccnc4)ccc3nc2C)cc1,20.5%
12,COc1ccccc1CCNC(=O)Cc1ccc(NC(=O)N2CCSc3ncccc32)cc1,-1.53%
13,Cc1ccc2oc(-c3ccc(Cl)c(NC(=O)Cc4ccccc4)c3)nc2c1,-2.23%
14,CCCNS(=O)(=O)c1cc(-c2nn3c(C)nnc3c3ccccc23)ccc1C,-0.217%
15,Cc1ccc(-n2c(=O)c3c4c(sc3n(Cc3cc(=O)n5cc(Cl)ccc5n3)c2=O)CCC4)cc1C,-2.21%
16,CCOC(=O)c1ccccc1NC(=O)CN(c1cccc(C)c1C)S(=O)(=O)c1ccccc1,-1.33%
17,CCc1ccc(-c2nn(CC(=O)NC3CCCCC3)c3c2cnc2ccc(F)cc23)cc1,-3.69%
18,CC(=O)N1CCCc2cc(S(=O)(=O)N3CCCC(C(=O)NCc4ccccc4Cl)C3)ccc21 (stereo unspecified),5.68%
19,COc1ccc(-c2ccc(-c3nnc(Cc4ccc(OC)c(OC)c4)o3)cc2)cc1,active: 30.3%
20,CCC(C(=O)NCCc1ccccc1)n1nc(C)c2sc3ccccc3c2c1=O (stereo unspecified),9.67%
21,COc1ccc(C2=C(C)C(N3CCC(C(=O)Nc4ccccc4F)CC3)=NS2(=O)=O)cc1,2.63%
22,O=C(C1CCN(c2ncnc3c2nc2n3CCCCC2)CC1)N1CCN(c2ccccc2F)CC1,15.8%
23,CCOc1ccc2oc(=O)cc(CN3CCN(C(=O)c4ccc(OC)c(OC)c4)CC3)c2c1,20%
24,CCSc1ncc(Cl)c(C(=O)Nc2nnc(CC)s2)n1,4.14%
